Consider 45 sequences from the supplement of paper PMC11417369.

The other results are listed elsewhere or left out.

For the assay, the system named is PfHDP1 homeodomain (GST-tagged). Kind of assay: gcPBM binding intensity (ln(normalized median fluorescence intensity)); higher = stronger DNA binding. A digest of the protocol: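 For binding intensity, the highest Masliner-normalised natural-log median intensity across replicate spots of either probe orientation was taken. Protein bound to the array was stained with Alexa488 anti-GST antibody and scanned at 488 nm. The protein, GST-tagged P. falciparum DNA-binding domains from E. coli at about 25 μg on average, had been applied for 1 h to an Agilent 4 × 180k array of primer-extended double-stranded 36-bp intergenic genomic probes and negative controls.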
In the case of “GAAAGAATAAAATTTACACACATATATATATACATA [CACACA_site2250]”, the “gcPBM binding intensity (ln)” value was found to be 6.44.

Turning to “ATATATATATATATATGTACTTATTTGAATACTAAA [XGTACX_site2330]”, the “gcPBM binding intensity (ln)” value was 9.2.

On to “AAAATAAGAAATAGATGTACTTATAAATAAATACAA [XGTACX_site4441]”, for which the “gcPBM binding intensity (ln)” value is 5.62.

For the sequence “TTATTGAAAAAAGAACAAAAAAAAAAAGAAAAATTA [XGTACX_negctrl_site438]”, the “gcPBM binding intensity (ln)” value amounted to 6.1.

On to “TATAAACATTATAAATGTACAAATATATATATATAT [XGTACX_site3218]”, for which the “gcPBM binding intensity (ln)” value amounted to 9.09.

In the case of “GAAATTTCCCATATTACACACATACTATGATATATA [CACACA_site5987]”, the “gcPBM binding intensity (ln)” value was determined as 6.89.

Turning to “TTTTTTATTTTTGCGTGTACATAATAATGAATCTTC [XGTACX_site8077]”, the “gcPBM binding intensity (ln)” value was 6.58.

With “ATCTATAAATTTCCACGTACATATATATATATATAT [XGTACX_site4502]”, the “gcPBM binding intensity (ln)” value turned out to be 9.45.

Turning to “TTTTAAATATATGTGCTATTATATTAAGAGATGTAA [GTGCAC_negctrl_site560]”, the “gcPBM binding intensity (ln)” value came to 6.44.

As for “CCTCTTTTTATTCTCACACACGTTTATATATAAAGT [CACACA_site4992]”, the “gcPBM binding intensity (ln)” value amounted to 7.51.

“CATTAAATATATAAATGTACAAATATATTTTTCAAA [XGTACX_site4429]”: the “gcPBM binding intensity (ln)” value was determined as 6.22.

As for “TTAATGTAGAGAAAATGTACATTTTATTAAAACAAT [XGTACX_site6376]”, the “gcPBM binding intensity (ln)” value was determined as 6.51.

As to “TTGTTCATATTTTTTATTGTGTTAATATTTATAAAA [GTGCAC_negctrl_site423]”, the “gcPBM binding intensity (ln)” value came to 6.83.

In the case of “CCTATTTATAAATACACACACATATATAAATAAATA [CACACA_site5629]”, the “gcPBM binding intensity (ln)” value is 7.08.

As to “TATTTATAGATATATACACACATATTTATATTTATA [CACACA_site6441]”, the “gcPBM binding intensity (ln)” value was determined as 6.51.

“AAAAAGAAATCCAATACACACCTTCAAAATGGGTAT [CACACA_site4978]”: the “gcPBM binding intensity (ln)” value came out at 6.3.

On to “AAAAAACTATTATGTGCATGCACAAGTCAGGTAAAT [TGCATGCA_site791]”, for which the “gcPBM binding intensity (ln)” value was found to be 11.3.

As to “ATAAAAGAATAAATAAAACACATATATATATATATA [XGTACX_negctrl_site31]”, the “gcPBM binding intensity (ln)” value came out at 9.58.

“ATATAAATCAAAAACGCACACATAAATATTTATATA [CACACA_site2442]”: the “gcPBM binding intensity (ln)” value came out at 7.19.

With “TTTTTTTTTTTTTTGGTGCACATAGAAATTCTAAAA [GTGCAC_site9809]”, the “gcPBM binding intensity (ln)” value was determined as 10.2.

As to “TTATAAATGTATTTATGTACATATAAATATATATAA [XGTACX_site2970]”, the “gcPBM binding intensity (ln)” value amounted to 6.2.

Regarding “AAAAGAAAATAAGAAACACACAAAAATATATAAAAA [CACACA_site3697]”, the “gcPBM binding intensity (ln)” value is 6.81.

Turning to “TTCTTTGCTTTTCAAACACACAAAAGTTATTATATT [CACACA_site521]”, the “gcPBM binding intensity (ln)” value is 6.74.

Consider “TTTAGTTTTTATATAGCACACATATTGTGATTATGT [CACACA_site8316]”, for which the “gcPBM binding intensity (ln)” value is 6.82.

As for “AATTTATAAAAGAAGAGGACACATATAAATATAAAT [XGTACX_site59]”, the “gcPBM binding intensity (ln)” value was found to be 6.8.

For the sequence “TATATTAATGTTCATAGTACGTATGATTAGGAAAAA [XGTACX_site616]”, the “gcPBM binding intensity (ln)” value was 7.12.

Regarding “ATATTCATATATTTACGTACATACATTTATATATTT [XGTACX_site7644]”, the “gcPBM binding intensity (ln)” value stood at 6.67.

On to “ATTTAAAAAAAAACGGAATTTTTTTTTTTTTTAAAG [XGTACX_negctrl_site91]”, for which the “gcPBM binding intensity (ln)” value turned out to be 5.88.

Consider “ACATATATGTATAATACACACACTAATATATAATTG [CACACA_site1966]”, for which the “gcPBM binding intensity (ln)” value was found to be 6.62.

For the sequence “GGAAAGACAGTTCACAGTACCCAGGAAATCTGCGGA [XGTACX_site4933]”, the “gcPBM binding intensity (ln)” value was 5.86.

Take “AATAATTAACAAAAAAAAAAAAAAAAAAAAAAAAAA [GTGCAC_negctrl_site255]”: the “gcPBM binding intensity (ln)” value was determined as 6.21.

On to “TATAAATAAATATGTACACACATATATACCTTTCAT [CACACA_site7291]”, for which the “gcPBM binding intensity (ln)” value worked out at 6.33.

As to “TATGTATTATATATTTGTACTCATTCTAATTCCTTC [XGTACX_site7294]”, the “gcPBM binding intensity (ln)” value is 6.47.

“TATTAATGATAAGAATATTTTATATGATACATGCAT [CACACA_negctrl_site923]”: the “gcPBM binding intensity (ln)” value amounted to 6.08.

Regarding “TATCTTTATATATAGTGTACACATTAAACAAATCTC [XGTACX_site7381]”, the “gcPBM binding intensity (ln)” value amounted to 6.71.

“ACTAAAAAAATAAACACACAGATTTATATAATATAT [CACACA_site4884]”: the “gcPBM binding intensity (ln)” value turned out to be 6.3.

Turning to “TCTATACCTATTCTTACACACATATGTATAAATATA [CACACA_site6407]”, the “gcPBM binding intensity (ln)” value came to 6.98.

As for “TTGACAACTCTTTTCATACACACAAAAAAAAAAAAA [CACACA_site2362]”, the “gcPBM binding intensity (ln)” value was 6.32.

In the case of “ACAAAATATATAGACACACAAACACAAATATGTTTT [CACACA_site3016]”, the “gcPBM binding intensity (ln)” value was 6.43.

For “TAATACAGATTAAAAGGTACACTTATTTGGTATTAT [XGTACX_site4966]”, the “gcPBM binding intensity (ln)” value was 6.38.

“TTAATATGAATTATTACATGCAACTAAATATATTTA [TGCATGCA_site490]”: the “gcPBM binding intensity (ln)” value was 6.8.

Regarding “TACAACCTTTAGACAAGTACAAGAATTATATGTGGC [XGTACX_site4581]”, the “gcPBM binding intensity (ln)” value was determined as 6.73.

For “TGTATATCACATGAGAGGTGGAGATGGGGATAAATA [CACACA_negctrl_site1148]”, the “gcPBM binding intensity (ln)” value was determined as 6.52.

Turning to “ATACAATTCTTACATTGTACTTTTTTTTTTTATCAC [XGTACX_site6327]”, the “gcPBM binding intensity (ln)” value was found to be 6.07.

As to “TACATAAATTAAAACACACACACACCCAAAAAAAAA [CACACA_site2261]”, the “gcPBM binding intensity (ln)” value is 6.86.
